# “And” between values parts separate entries of the source, which are not always exact repeats. Equal entries are not always repeated. The shares of active, inactive and inconclusive entries below differ from those in the screen. For some assays here: Potencies beside an inconclusive call are fits to weak or partial responses and may not hold up. Some structures have more than one record in an assay (separate samples or runs), and their calls can disagree. The source made the active and inactive calls. Unless noted, the call rests on the fitted dose curve; in most records, active means well fitted curve in the direction sought with a large enough effect in the repeat runs; inconclusive means weak or mixed curves; inactive means no such curve, though single readings can be large; an effect the other way counts as inactive or inconclusive.
# Key:
# [1] = qHTS assay to identify small molecule antagonists of the estrogen receptor alpha (ER-alpha) signaling pathway using the BG1 cell line in the presence of 0.1 nM 17-beta-estradiol - cell viability counter screen (AID 1259241); further: nearly all actives have a fitted effect of over 40% in size
# In short: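 CellTiter-Fluor read (30 min, 37C) on ER-alpha/ERE-luc VM7Luc4E2 cells; 22 hr compound treatment; agonist 0.1 nM E2 final; same-well multiplex.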
# [2] = qHTS assay to identify small molecule antagonists of the sonic hedgehog signaling (Shh) pathway - cell viability counter screen (AID 1259367); further: nearly all actives have a fitted effect of over 55% in size
# In short: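 Seed 3T3 Gli1-Luc cells at 2,000 per well; incubate 4 hr; add compound in DMSO, then conditioned medium; incubate at 37C with 5% CO2; add CellTiter-Fluor after 23 hr; read fluorescence 1 hr later.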
# [3] = biological target: Estrogen receptor beta (Homo sapiens) (UniProt Q92731); test: qHTS assay to identify small molecule agonists of the estrogen receptor beta (ER-beta) signaling pathway (AID 1259377; active means well fitted activation curve with a large enough effect in the signal ratio in the repeat runs, not every such curve was filed as active; inconclusive means weak or mixed curves, or effect the other way; the % refers to the signal ratio; on activation: on the % scale 0 is the no-effect control and ±100 the full control effect); conditions: ER-beta-UAS-bla HEK293T, beta-lactamase FRET ratio, 16 h; activation: at 92.4 µM (top of the series) unless noted
# UniProt Q92731, sequence (Q92731 whole entry, looked up): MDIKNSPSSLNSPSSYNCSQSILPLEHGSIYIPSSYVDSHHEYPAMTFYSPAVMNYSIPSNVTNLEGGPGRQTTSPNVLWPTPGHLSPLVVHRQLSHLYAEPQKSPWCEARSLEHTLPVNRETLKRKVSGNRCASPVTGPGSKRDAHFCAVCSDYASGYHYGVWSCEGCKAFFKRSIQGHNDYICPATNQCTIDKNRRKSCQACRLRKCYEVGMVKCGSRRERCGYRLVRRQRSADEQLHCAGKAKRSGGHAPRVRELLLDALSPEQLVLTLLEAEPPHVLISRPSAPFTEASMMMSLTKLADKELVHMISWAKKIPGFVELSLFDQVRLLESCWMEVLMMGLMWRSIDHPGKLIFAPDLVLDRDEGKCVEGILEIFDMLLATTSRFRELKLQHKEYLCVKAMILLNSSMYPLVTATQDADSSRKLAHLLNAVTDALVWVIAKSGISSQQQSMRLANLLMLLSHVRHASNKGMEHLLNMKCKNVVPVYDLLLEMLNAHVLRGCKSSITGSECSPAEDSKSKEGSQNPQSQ
# In short: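 Screening used GripTite ER-beta-UAS-bla cells held in 2% charcoal-stripped FBS medium. After overnight (16 hr) compound incubation at 37C, beta-lactamase activity was detected with a FRET substrate by fluorescence.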
# [4] = biological target: Estrogen receptor beta (Homo sapiens) (UniProt Q92731); test: qHTS assay to identify small molecule antagonists of the estrogen receptor beta (ER-beta) signaling pathway (AID 1259378; active means well fitted inhibition curve with a large enough effect in the signal ratio in the repeat runs, not every such curve was filed as active; inconclusive means weak or mixed curves, or effect the other way; inactive means no such curve, though single readings can be large or run the other way; the % refers to the signal ratio; on activity, negative = inhibition: on the % scale 0 is the no-effect control and ±100 the full control effect); conditions: ER-beta-UAS-bla HEK293T, beta-lactamase FRET ratio, 16 h; activity, negative = inhibition: at 92.4 µM (top of the series) unless noted
# In short: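 ER-beta-UAS-bla HEK293T cells in 2% charcoal-stripped FBS medium treated with compound plus 1nM final 17-beta-estradiol for 16 hr at 37C. Beta-lactamase reporter read by FRET substrate fluorescence after 2 hours at room temperature.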
# [5] = qHTS assay to identify small molecule antagonists of the estrogen receptor beta (ER-beta) signaling pathway - cell viability counter screen (AID 1259382); further: nearly all actives have a fitted effect of over 55% in size
# In short: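 Tox21 10K library tested in qHTS format on ER-beta-bla HEK293T cells stimulated with 1nM E2; 16 hr treatment at 37C. Same-well CellTiter-Glo luminescence served as the cell viability measure.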
# [6] = qHTS assay to identify small molecule agonists of the androgen receptor (AR) signaling pathway in the presence of an antagonist - cell viability counter screen (AID 1259379); further: nearly all actives have a fitted effect of over 25% in size
# In short: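 In MDA-kb2 cells (human breast carcinoma, MMTV-luciferase), compounds at 15 concentrations plus 3.0uM nilutamide; 16 hr, 37C, 0% CO2; CellTiter-Fluor fluorescence read for viability.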
# [7] = qHTS assay to identify small molecule HDAC inhibitors - cell viability counter screen (AID 1259365); further: nearly all actives have a fitted effect of over 50% in size
# In short: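 To flag cytotoxic hits, 1,500 wild-type HCT-116 cells per well, plated the day before, receive test compounds for 2hr at 37 C before CellTiter-Glo reagent and a luminescence read.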
# [8] = qHTS assay to identify small molecule antagonists of the sonic hedgehog signaling (Shh) pathway (AID 1259369; calls by dose curve; further: nearly all actives have a fitted effect of over 45% in size)
# In short: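 Screening used 3T3Gli1-Luc cells at 2,000 per well, compounds delivered in DMSO, and conditioned medium as agonist stimulus; plates incubated 24hr at 37 C and 5% CO2 before a 30min luciferase step.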
# [9] = qHTS assay to identify small molecule agonists or antagonists of the thyroid stimulating hormone receptor (TSHR) signaling pathway - wild type cell line counter screen (AID 1259384; calls by dose curve; on cAMP activity change: on the % scale 0 is the no-effect control and ±100 the full control effect); conditions: HEK293 wild type, cAMP HTRF counter-screen; cAMP activity change: at 92.4 µM (top of the series), stronger effect = higher value unless noted
# In short: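 Wild-type Hek293 cells, 800/well, 18 h at 37C, then compound with Ro20-1724 for 30 min RT. cAMP by HTRF (cAMP-d2/anti-cAMP cryptate), 1 h RT, fluorescence read. 15 concentrations, triplicates.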
# [10] = qHTS assay to identify small molecule phospholipidosis (PLD) inducers (AID 1259344; active means well fitted curve in the direction sought with a large enough effect; inconclusive means small, poorly fitted or top-dose-only effect, or another doubt; inactive means no such curve, though single readings can be large; an effect the other way counts as inactive or inconclusive)
# In short: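 Quantitative HTS in HepG2: compound plus LipidTOX Red dye for 24 h, paraformaldehyde fixation with Hoechst 33342, widefield high-content imaging; amiodarone as positive and DMSO as negative control.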
# [11] = qHTS assay to identify small molecule agonists of the sonic hedgehog signaling (Shh) pathway - cell viability counter screen (AID 1259366); further: nearly all actives have a fitted effect of over 50% in size
# In short: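 Fluorescence from CellTiter-Fluor reports live cells in this counter screen. NIH/3T3-derived Gli1-Luc reporter cells receive test compounds for 24hr at 37C; reagent goes in at 23hr.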
# [12] = qHTS assay to identify small molecule HDAC inhibitors (AID 1259364); further: nearly all actives have a fitted effect of over 45% in size
# In short: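 Endogenous HDAC class I/II activity was measured in wild-type HCT-116 cells by HDAC-Glo luminescence after 2 h compound treatment.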
# [13] = qHTS assay to identify small molecule agonists of the estrogen receptor beta (ER-beta) signaling pathway - cell viability counter screen (AID 1259380); further: nearly all actives have a fitted effect of over 30% in size
# In short: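 Viability of ER-beta-UAS-bla HEK293T cells was determined by CellTiter-Glo luminescence following 16 hr treatment with test compounds at 37C.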
# [14] = biological target: Estrogen receptor (Homo sapiens) (UniProt P03372); test: qHTS assay to identify small molecule antagonists of the estrogen receptor alpha (ER-alpha) signaling pathway using the BG1 cell line in the presence of 0.1 nM 17-beta-estradiol (AID 1259244); further: nearly all actives have a fitted effect of over 50% in size
# UniProt P03372, sequence (P03372 whole entry, looked up): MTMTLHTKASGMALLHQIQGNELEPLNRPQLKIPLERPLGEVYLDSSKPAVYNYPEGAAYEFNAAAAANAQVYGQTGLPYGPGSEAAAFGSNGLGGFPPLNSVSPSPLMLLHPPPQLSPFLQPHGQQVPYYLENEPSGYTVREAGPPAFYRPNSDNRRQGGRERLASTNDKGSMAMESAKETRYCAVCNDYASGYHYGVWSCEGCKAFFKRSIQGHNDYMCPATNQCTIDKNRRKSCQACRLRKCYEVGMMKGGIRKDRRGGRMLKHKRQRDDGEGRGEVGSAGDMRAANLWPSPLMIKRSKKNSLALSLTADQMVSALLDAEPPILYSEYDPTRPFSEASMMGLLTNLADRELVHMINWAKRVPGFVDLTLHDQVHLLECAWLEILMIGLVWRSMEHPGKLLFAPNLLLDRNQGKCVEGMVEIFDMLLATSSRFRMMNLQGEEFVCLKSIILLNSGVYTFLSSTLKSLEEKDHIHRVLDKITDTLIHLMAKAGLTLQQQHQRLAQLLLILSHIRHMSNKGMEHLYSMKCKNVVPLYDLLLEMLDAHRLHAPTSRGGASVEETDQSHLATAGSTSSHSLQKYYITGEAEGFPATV
# In short: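 Quantitative high-throughput screen in VM7Luc4E2 cells: compound plus 0.1 nM E2 (final), 22 h, 37C, 5% CO2; ONE-Glo added, 30 min room temperature, luminescence measured.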
# [15] = qHTS assay to identify small molecule antagonists of the androgen receptor (AR) signaling pathway using the MDA cell line in the presence of 0.5 nM R1881 - cell viability counter screen (AID 1259242); further: nearly all actives have a fitted effect of over 45% in size
# In short: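 Fluorescence from CellTiter-Fluor, which reports protease activity of live cells, was read 30 min after reagent addition to MDA-kb2 cells that had been incubated 16 hr with compound and 0.5 nM R1881.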
# Potency means the concentration at half of the fitted maximal effect; tags describe the fitted curve by direction and shape or compound fluorescence and quenching.
smiles,measurement,setting,value
Oc1ccc(CCNCCCCCCNCCc2ccccc2)cc1O,Potency,[1],"inconclusive: 13.3 µM [cytotoxic, partial curve]"
same,Potency,[2],"inconclusive: 10.6 µM [cytotoxic, full curve, poor fit]"
same,Potency,[3],"inconclusive: 11.9 µM [rising, partial curve]"
same,"activity, negative = inhibition",[4],inconclusive: -28.6% [at 42.5 µM]
same,Potency,[5],"inconclusive: 15 µM [cytotoxic, partial curve, poor fit]"
CC(C)(C)CC(C)(C)N,Potency,[1],inactive
same,Potency,[2],inactive
same,Potency,[4],inactive
same,Potency,[6],inactive
CCN(CC)c1ccc(C(=C2C=CC(=[N+](CC)CC)C=C2)c2ccc(S(=O)(=O)O)cc2S(=O)(=O)[O-])cc1,Potency,[1],active: 12.2 µM
same,Potency,[7],active: 21.7 µM
same,Potency,[8],"inconclusive: 13.7 µM [inhibitor, full curve, poor fit]"
same,Potency,[3],inactive
same,Potency,[4],inactive
same,Potency,[6],active: 27.3 µM
same,Potency,[5],"inconclusive: 30.6 µM [cytotoxic, partial curve]"
same,Potency,[9],inconclusive: 2.73 µM
C=CC(=O)Nc1cc2c(Nc3ccc(F)c(Cl)c3)ncnc2cc1OCCCN1CCOCC1,Potency,[1],"inconclusive: 4.73 µM [cytotoxic, partial curve]"
same,Potency,[10],active: 0.891 µM
same,Potency,[3],"inconclusive: 11.9 µM [rising, single point]"
same,Potency,[4],"inconclusive: 4.73 µM [inhibitor, full curve]"
same,Potency,[9],inactive
Clc1ccc(C(Cn2ccnc2)OCc2ccc(Sc3ccccc3)cc2)c(Cl)c1 (centres undefined),Potency,[1],inactive
same,Potency,[8],"inconclusive: 33.5 µM [inhibitor, single point]"
CC(=O)Oc1ccc(C2(c3ccc(OC(C)=O)cc3)C(=O)Nc3ccccc32)cc1,Potency,[1],"inconclusive: 0.15 µM [cytotoxic, full curve]"
same,Potency,[11],"inconclusive: 26.6 µM [cytotoxic, partial curve]"
same,"activity, negative = inhibition",[4],inconclusive: -40.6% [at 42.5 µM]
same,Potency,[6],"inconclusive: 0.298 µM [cytotoxic, full curve]"
same,Potency,[5],inactive
O=C(O)c1cc(O)c2c(c1)C(=O)c1cccc(O)c1C2=O,Potency,[1],"inconclusive: 70.6 µM [cytotoxic, partial curve, poor fit]"
same,Potency,[12],active: 14.1 µM
same,Potency,[2],"inconclusive: 28.1 µM [cytotoxic, single point]"
same,Potency,[8],"inconclusive: 28.1 µM [inhibitor, single point]"
same,Potency,[6],"inconclusive: 56.1 µM [cytotoxic, partial curve]"
NCCCCCCNCCCCCCN,Potency,[1],"inconclusive: 26.9 µM [cytotoxic, partial curve, poor fit]"
same,Potency,[12],inactive
same,Potency,[11],"inconclusive: 26.9 µM [cytotoxic, partial curve]"
same,Potency,[2],"inconclusive: 15.1 µM [cytotoxic, full curve]"
same,Potency,[8],"inconclusive: 1.9 µM [inhibitor, partial curve]"
CCCCC(CC)COP(=O)(OCC(CC)CCCC)OCC(CC)CCCC (centres undefined),Potency,[1],inactive
same,Potency,[11],inactive
same,Potency,[3],inactive
O=C(OCCCCCCOC(=O)c1ccccc1)c1ccccc1,Potency,[1],inactive
same,Potency,[2],"inconclusive: 68.6 µM [cytotoxic, single point]"
NNc1nc(-c2ccc([N+](=O)[O-])cc2)cs1,Potency,[1],active: 27.3 µM
same,Potency,[2],active: 48.6 µM
same,Potency,[4],inactive
same,Potency,[13],"inconclusive: 2.43 µM [cytotoxic, full curve]"
same,Potency,[9],"inconclusive: 30.6 µM [falling, partial curve]"
Cc1cc(C(=C2C=CC(=Nc3ccc(S(=O)(=O)O)cc3S(=O)(=O)O)C=C2)c2ccc(Nc3ccc(S(=O)(=O)O)cc3)cc2)ccc1N,Potency,[1],"inconclusive: 17.8 µM [cytotoxic, single point]"
same,Potency,[8],inactive
C[Si](C)(CCCN)O[Si](C)(C)CCCN,Potency,[1],inactive
same,Potency,[8],"inconclusive: 68.6 µM [inhibitor, single point]"
Cc1c(C)c2c(c(C)c1OC(=O)CCC(=O)OCCO)CC[C@@](C)(CCC[C@H](C)CCC[C@H](C)CCCC(C)C)O2,Potency,[1],"inconclusive: 0.668 µM [cytotoxic, single point]"
same,Potency,[10],"inconclusive: 3.55 µM [activator, single point]"
same,Potency,[8],inactive
same,Potency,[4],active: 13.3 µM
same,Potency,[13],"inconclusive: 33.5 µM [cytotoxic, single point]"
Nc1ncnc2c1ncn2[C@@H]1O[C@H](CO)[C@@H](O)[C@H]1O,Potency,[1],"inconclusive: 0.119 µM [cytotoxic, single point]"
same,Potency,[14],"inconclusive: 15 µM [inhibitor, partial curve]"
same,"activity, negative = inhibition",[4],inconclusive: 26.9% [at 42.5 µM]
O=C(Nc1ccc(Oc2ccc(Cl)cc2)c(Cl)c1)c1cc(I)cc(I)c1O,Potency,[1],"inconclusive: 33.5 µM [cytotoxic, partial curve, poor fit]"
same,Potency,[6],"inconclusive: 33.5 µM [cytotoxic, single point]"
same,Potency,[5],"inconclusive: 18.8 µM [cytotoxic, partial curve]"
Cc1ccc2oc(CN(Cc3ccccc3)C(=O)Nc3c(F)cc(F)cc3F)c(-c3ccc(Cl)cc3)c2c1,Potency,[1],inactive
same,"activity, negative = inhibition",[4],inconclusive: 21.9%
C[C@@H](C1=C(CCN(C)C)Cc2ccccc21)c1ccccn1,Potency,[1],inactive
same,Potency,[11],"inconclusive: 23.7 µM [cytotoxic, partial curve, poor fit]"
same,Potency,[8],"inconclusive: 29.8 µM [inhibitor, partial curve, poor fit]"
same,Potency,[13],"inconclusive: 29.8 µM [cytotoxic, partial curve]"
Nc1c2ccccc2nc2ccccc12,Potency,[1],"inconclusive: 47.9 µM [rising, partial curve]"
same,Potency,[7],"inconclusive: 30.2 µM [rising, partial curve]"
same,Potency,[2],"inconclusive: 60.3 µM [rising, partial curve]"
same,Potency,[9],inconclusive: 50.8 µM
same,cAMP activity change,[9],"inconclusive: -1.99% [at 42.5 µM, stronger effect = higher value]"
O=C1Nc2ccccc2C1(c1ccc(O)cc1)c1ccc(O)cc1,Potency,[1],"inconclusive: 611 nM [cytotoxic, full curve] and active: 298 nM"
same,Potency,[11],active: 27.3 µM and active: 9.44 µM
same,Potency,[2],"inconclusive: 8.41 µM [cytotoxic, full curve, poor fit]"
same,Potency,[8],"active: 34.4 µM and inconclusive: 6.68 µM [inhibitor, full curve, poor fit]"
same,Potency,[4],active: 27.3 µM and active: 18.8 µM
same,Potency,[6],"inconclusive: 969 nM [cytotoxic, full curve] and inconclusive: 473 nM [cytotoxic, full curve]"
O=S(=O)(O)c1ccccc1/C=C/c1ccc(-c2ccc(/C=C/c3ccccc3S(=O)(=O)O)cc2)cc1,Potency,[1],"inconclusive: 55.2 µM [rising, single point]"
same,Potency,[11],"inconclusive: 49.2 µM [rising, partial curve]"
same,Potency,[2],inconclusive: 49.2 µM
same,Potency,[3],active: 39.1 µM
same,Potency,[4],inconclusive: 55.2 µM [activator]
same,Potency,[6],inconclusive: 55.2 µM
O=S(=O)(O)c1ccc(Nc2nc(Nc3ccc(/C=C/c4ccc(Nc5nc(Nc6ccc(S(=O)(=O)O)cc6)nc(N(CCO)CCO)n5)cc4S(=O)(=O)O)c(S(=O)(=O)O)c3)nc(N(CCO)CCO)n2)cc1,Potency,[1],"inconclusive: 46.3 µM [rising, single point]"
same,Potency,[3],inconclusive: 36.8 µM [activator]
same,"activity, negative = inhibition",[4],inconclusive: 7.04% [at 42.5 µM]
CC/C(=C(/CC)c1ccc(O)cc1)c1ccc(O)cc1,Potency,[1],"inconclusive: 5.96 µM [cytotoxic, partial curve, poor fit]"
same,Potency,[11],"inconclusive: 54 µM [cytotoxic, partial curve]"
same,Potency,[2],"inconclusive: 54 µM [cytotoxic, partial curve, poor fit]"
same,Potency,[6],active: 60.6 µM
same,Potency,[5],inconclusive: 61.1 µM [cytotoxic]
Oc1ccccc1O,Potency,[1],"inconclusive: 49.2 µM [cytotoxic, partial curve, poor fit] and inconclusive: 68.6 µM [cytotoxic, single point]"
same,Potency,[11],active: 9.81 µM and active: 15.4 µM
same,Potency,[3],active: 22 µM and active: 24.3 µM
same,Potency,[13],"inconclusive: 27.6 µM [cytotoxic, single point]"
CC(C)NCC(O)COc1cccc2[nH]ccc12 (centres undefined),Potency,[15],inactive
CCOC(=O)NCCOc1ccc(Oc2ccccc2)cc1,Potency,[15],inconclusive: 61.1 µM [cytotoxic]
same,Potency,[14],active: 43.3 µM
same,Potency,[8],"inconclusive: 21.7 µM [inhibitor, partial curve]"
same,Potency,[13],"inconclusive: 30.6 µM [cytotoxic, full curve]"
